From paper PMC4336329 (PLoS ONE, 2015)
About 2,200 (0.71%) of roughly 310,000 compounds showed an effect of 50% or more. Effects have a minus sign here. Some of the results follow.

Molecular target: human ether-à-go-go-related gene (hERG) potassium channel (human, UniProt Q12809)
Experiment: primary screen, population patch clamp on CHO cells stably expressing hERG

human ether-à-go-go-related gene (hERG) potassium channel, sequence (Q12809 whole entry, looked up): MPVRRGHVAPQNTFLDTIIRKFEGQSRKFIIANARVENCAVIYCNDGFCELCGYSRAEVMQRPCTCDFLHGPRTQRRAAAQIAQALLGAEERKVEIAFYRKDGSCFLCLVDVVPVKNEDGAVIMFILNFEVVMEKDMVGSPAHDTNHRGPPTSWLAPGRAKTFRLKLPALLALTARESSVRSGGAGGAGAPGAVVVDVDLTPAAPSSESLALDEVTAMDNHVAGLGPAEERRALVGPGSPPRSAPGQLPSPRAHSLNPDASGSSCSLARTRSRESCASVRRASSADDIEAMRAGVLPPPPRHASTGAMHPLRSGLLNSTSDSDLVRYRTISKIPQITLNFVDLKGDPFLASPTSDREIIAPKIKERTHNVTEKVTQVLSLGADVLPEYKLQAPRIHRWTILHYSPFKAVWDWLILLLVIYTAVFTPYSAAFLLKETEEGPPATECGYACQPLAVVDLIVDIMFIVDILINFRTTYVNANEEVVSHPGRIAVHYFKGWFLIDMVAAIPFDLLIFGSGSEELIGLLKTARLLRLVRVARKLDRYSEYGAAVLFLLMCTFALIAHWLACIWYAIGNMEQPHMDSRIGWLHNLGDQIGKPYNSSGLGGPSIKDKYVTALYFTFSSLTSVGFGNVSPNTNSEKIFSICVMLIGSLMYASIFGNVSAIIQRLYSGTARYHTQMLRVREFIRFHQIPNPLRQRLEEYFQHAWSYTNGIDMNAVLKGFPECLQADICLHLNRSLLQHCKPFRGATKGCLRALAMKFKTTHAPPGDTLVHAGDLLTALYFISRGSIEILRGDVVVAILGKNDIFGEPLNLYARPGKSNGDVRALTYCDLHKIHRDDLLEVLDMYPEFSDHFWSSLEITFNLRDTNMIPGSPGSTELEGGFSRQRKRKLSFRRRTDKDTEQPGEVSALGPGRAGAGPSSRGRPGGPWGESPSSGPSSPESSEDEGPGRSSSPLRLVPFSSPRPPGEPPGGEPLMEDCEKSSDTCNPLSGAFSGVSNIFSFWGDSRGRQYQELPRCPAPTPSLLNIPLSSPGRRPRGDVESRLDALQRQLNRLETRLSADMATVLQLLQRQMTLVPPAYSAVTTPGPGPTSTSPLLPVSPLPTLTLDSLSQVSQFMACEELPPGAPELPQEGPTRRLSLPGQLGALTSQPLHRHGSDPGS

Compound | hERG current change (%, negative = inhibition) at 1uM
S=C(NCc1cccnc1)Nc1ccc(Cl)cc1 | 6.5%
Cc1onc(C(=O)NC2CCCCC2)c1[N+](=O)[O-] | 4.12%
CCOc1ccc(NC(=O)CN2CCc3cc4c(cc3C2)OCCCO4)cc1OCC | -9.58%
COc1ccccc1N=Nc1c(C)[nH][nH]c1=O | -7.06%
O=C(COc1ccc(Br)cc1F)NC1CCN(Cc2ccccc2)CC1 | -64.8%
Cn1cc(SCC(=O)NC2CCCC2)c2ccccc21 | 3.46%
CCSc1ccccc1C(=O)N1CCN(c2ccc([N+](=O)[O-])cc2)CC1 | -41%
O=C(c1ccccc1-n1cccn1)N1CCc2c([nH]c3ccccc23)C1c1ccccn1 (centres unmarked) | 10.2%
CCCCNC(=O)Cc1c(OC)ccc2cc(Br)ccc12 | 19.6%
Cc1ccc(-c2nn3c(C)nnc3s2)cc1NCc1c(F)cccc1Cl | 10.8%
O=C(c1cccs1)n1nc(-c2ccc(Cl)cc2)nc1NCc1ccco1 | 2.26%
O=c1[nH]c2ccccc2nc1/C=C/c1ccc(Cl)cc1 | 14.3%
Cc1ccc(-c2c(C(=O)Nc3ccccc3C)c(C)[nH]c(=S)c2C#N)o1 | 10.2%
COC(=O)CCC(=O)Nc1cc(OC)c(OC)cc1Cc1nccc2cc(OC)c(OC)cc12 | 15.2%
O=C(Cn1cnc2ccccc2c1=O)c1cccs1 | 8.31%
O=C(O)CCNS(=O)(=O)c1ccccc1Br | -3.26%
COc1ccc(NC(=O)Cc2ccsc2)cc1S(=O)(=O)N1CCOCC1 | 14.2%
O=C(COC(=O)c1cccc([N+](=O)[O-])c1)NCc1ccc2c(c1)OCO2 | 11%
COCC1CCN(C(=O)C2CCC(=O)N(CCc3ccc(Cl)cc3)C2)CC1 (centres unmarked) | 12.6%
CN(C1CCCCC1)S(=O)(=O)c1ccc(NC(=O)c2ccco2)cc1 | 13.4%
CCN(Cc1ccccc1)C(=O)c1cc(-c2ccc(OC)c(OC)c2)nc2ccccc12 | 12.6%
O=C(CSc1nc2ccccc2c(=O)n1-c1ccc(F)cc1F)Nc1ccc2c(c1)CCC2 | 11.6%

Compound | hERG current change (%, negative = inhibition) at 1uM
O=C1OC(c2ccccc2)/C(=C(/O)c2ccccc2)C1=O (centres unmarked) | 9.72%
Cc1cc(C)cc(N(CCC#N)C(=O)CSc2nc3nc(C)cc(C)n3n2)c1 | 6.85%
C=CCn1c(C)cc(-c2csc(NCC)n2)c1C | 6.16%
O=C(CSCc1ccccn1)Nc1ccccc1 | -0.275%
O=C(NC12CC3CC(CC(C3)C1)C2)c1ccc(N2CCNCC2)c([N+](=O)[O-])c1 | 8.55%
Cc1ccc2[nH]c(=O)c3cc(C(=O)N(CCCOC(C)C)Cc4ccco4)sc3c2c1 | 11.1%
O=C(COc1ncnc2sccc12)N1CCN(S(=O)(=O)c2ccc(Cl)cc2)CC1 | 4.25%
CCOC(=O)c1cnc(SCc2cccc3ccccc23)nc1N | 11.3%
COc1ccccc1C(=O)NC(=O)COC(=O)Cc1ccc(F)cc1 | 8.35%
CC(=O)c1cccc(NC(=O)CC2S/C(=N/N=C/c3ccccc3)NC2=O)c1 (centres unmarked) | 6.93%
Cc1cc(-c2csc(NC(=O)c3ccccc3C(F)(F)F)n2)c(C)n1Cc1ccccc1 | 14.1%
O=C(NCCc1ccccc1)c1ccc(NCC2CCCO2)c([N+](=O)[O-])c1 (centres unmarked) | -19.9%
NC(=O)Cn1cc(C(=O)c2ccccc2)c2ccccc21 | 12.8%
Cc1ccc(/C=N/NC(=S)N2CCOCC2)cc1 | 14.4%
Cc1cc(C(=O)N(C)CC(=O)Nc2cccc(F)c2)no1 | 23.3%
CCC1CCCCN1C(=O)Cn1c(C(=O)OC)cc2ccsc21 (centres unmarked) | 12.9%
O=S(=O)(NCC(c1cccnc1)N1CCN(c2ccc(F)cc2)CC1)c1ccccc1 (centres unmarked) | -9%
CCc1cc(=O)oc2c(C)c(OCC(=O)N3CCCc4ccccc43)ccc12 | 6.25%
CC(C)CC(=O)n1sc(NC(=O)c2ccccc2)nc1=O | 3.03%
Cc1ccccc1Cn1cnc2c(cnn2C(C)(C)C)c1=O | 6.11%
COCCNC(=O)CN(C(=O)CCC(=O)Nc1ccccn1)c1ccc(C)c(C)c1 | 15.7%
CCOC(=O)N1CCN(CC(O)c2c[nH]c3ccccc23)CC1 (centres unmarked) | 16.2%
